Test results published in the supplement of paper PMC4996465.
Viability of KB3-1 and Nalm-6 cells after 48 h of drug alone (CellTiter-Glo), 11 doses over about 4.5 log units. % of DMSO wells, lower = more cell loss; AC50 from the fitted curve, lower = more potent. No active / inactive call. Nalm-6 was screened in two runs. AC50 is listed only for well-fitted inhibitory curves. KB3-1 is a HeLa-derived carcinoma line, Nalm-6 a B-cell precursor leukaemia line.

Assays:
KB3-1 = experiment: viability (% of DMSO control); higher = more viable cells
Experimental: (§1)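 Eleven-dose screen of the NCATS MIPE 3 library on cells without co-treatment; CellTiter-Glo after 48 h, as % of DMSO wells.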

Nalm-6 = experiment: as above
Experimental: as §1

SMILES | viability (KB3-1; 0.00078 µM) | viability (KB3-1; 0.00234 µM) | viability (KB3-1; 0.00702 µM) | viability (KB3-1; 0.0211 µM) | viability (KB3-1; 0.0632 µM) | viability (KB3-1; 0.19 µM) | viability (KB3-1; 0.569 µM) | viability (KB3-1; 1.71 µM) | viability (KB3-1; 5.12 µM) | viability (KB3-1; 15.4 µM) | viability (KB3-1; 46.1 µM) | viability (Nalm-6; run: 1, 0.00078 µM) | viability (Nalm-6; run: 1, 0.00234 µM) | viability (Nalm-6; run: 1, 0.00702 µM) | viability (Nalm-6; run: 1, 0.0211 µM) | viability (Nalm-6; run: 1, 0.0632 µM) | viability (Nalm-6; run: 1, 0.19 µM) | viability (Nalm-6; run: 1, 0.569 µM) | viability (Nalm-6; run: 1, 1.71 µM) | viability (Nalm-6; run: 1, 5.12 µM) | viability (Nalm-6; run: 1, 15.4 µM) | viability (Nalm-6; run: 1, 46.1 µM) | viability (Nalm-6; run: 2, 0.00078 µM) | viability (Nalm-6; run: 2, 0.00234 µM) | viability (Nalm-6; run: 2, 0.00702 µM) | viability (Nalm-6; run: 2, 0.0211 µM) | viability (Nalm-6; run: 2, 0.0632 µM) | viability (Nalm-6; run: 2, 0.19 µM) | viability (Nalm-6; run: 2, 0.569 µM) | viability (Nalm-6; run: 2, 1.71 µM) | viability (Nalm-6; run: 2, 5.12 µM) | viability (Nalm-6; run: 2, 15.4 µM) | viability (Nalm-6; run: 2, 46.1 µM)
CC(C)(C(=O)NCC(F)(F)C(F)(F)F)C(=O)N[C@@H]1C(=O)Nc2ccccc2-c2ccccc21 | 93.4% | 103% | 97.8% | 98.2% | 84.6% | 70.2% | 92.8% | 97.2% | 98.5% | 90.4% | 77.8% | 97.7% | 104% | 107% | 105% | 105% | 105% | 108% | 107% | 106% | 106% | 102% | 103% | 103% | 109% | 106% | 107% | 106% | 97.4% | 110% | 99.5% | 106% | 109%
CC(C)(O)CCc1ccc(OCc2cc(-c3cccc(OC(F)F)c3)c3ncccc3c2)cc1 | 108% | 107% | 108% | 111% | 109% | 106% | 111% | 108% | 110% | 100% | 32.2% | 103% | 104% | 110% | 114% | 111% | 111% | 118% | 123% | 117% | 121% | 6.18% | 104% | 106% | 102% | 112% | 105% | 105% | 108% | 112% | 108% | 113% | 2.36%
Cc1cnc(Nc2ccc(OCCN3CCCC3)cc2)nc1Nc1cccc(S(=O)(=O)NC(C)(C)C)c1 | 101% | 110% | 100% | 101% | 97% | 107% | 81.4% | 99.6% | 102% | 101% | 86.4% | 103% | 106% | 106% | 111% | 100% | 115% | 110% | 101% | 101% | 99.9% | 30% | 99.8% | 101% | 103% | 105% | 100% | 104% | 103% | 100% | 107% | 94.8% | 22.2%
CCC(C)N(C)C(=O)c1cc2ccccc2c(-c2ccccc2Cl)n1 (stereo unspecified) | 98% | 93.1% | 99.6% | 95.4% | 97.8% | 94.6% | 98.6% | 98.2% | 98.1% | 95.8% | 62.6% | 95.6% | 105% | 97% | 103% | 111% | 103% | 106% | 100% | 97.7% | 95.4% | 67.2% | 94.7% | 92.8% | 97.4% | 93% | 98.7% | 100% | 98.3% | 105% | 96% | 94.5% | 67.5%
CCN(CC)CCCC(C)Nc1nc(C)cc(Nc2ccc3nc(C)cc(N)c3c2)n1 (stereo unspecified) | 98.3% | 96.9% | 98.3% | 95.7% | 97.2% | 95.6% | 92.7% | 89.6% | 90.8% | 93.4% | 23.7% | 96.6% | 98.8% | 98.9% | 96.8% | 103% | 107% | 92.1% | 93.2% | 90.4% | 90% | 48.4% | 104% | 97.3% | 105% | 92.4% | 99.9% | 91.9% | 98.4% | 97.5% | 97.5% | 94.8% | 53.7%
CCOC(=O)C(C)OC1=CC=CC2=C1\C=C/N(CC(=O)NC3=CC=C4OCCOC4=C3)C2=O (stereo unspecified) | 103% | 108% | 69.6% | 98.8% | 97.9% | 100% | 101% | 106% | 109% | 107% | 99.6% | 87% | 98.4% | 5.91% | 103% | 100% | 103% | 100% | 97% | 107% | 107% | 68.6% | 90.7% | 97.9% | 5.12% | 98.1% | 99.7% | 99.6% | 106% | 94.2% | 97.3% | 99.1% | 101%
COc1ccccc1[C@H](c1cccc2ccccc12)[C@@](C)(C#N)C(=O)N1CCC(c2cccc(C(F)(F)F)c2)CC1 | 105% | 103% | 104% | 98.8% | 102% | 105% | 104% | 98% | 94.1% | 78.1% | 74.4% | 94.1% | 96.9% | 106% | 103% | 91.5% | 106% | 100% | 98.4% | 98.5% | 80.8% | 83.4% | 95.5% | 101% | 102% | 100% | 96.2% | 97.1% | 94.9% | 96.6% | 82.4% | 84.3% | 93.8%
